According to PubChem BioAssay AID924 (National Center for Advancing Translational Sciences (NCATS), 2007):
“And” between values parts separate entries of the source, which are not always exact repeats. Equal entries are not always repeated. Out of some 130,000 compounds screened, about 1,200 (0.92%) were called active. Inconclusive means that the source gave no clear call. Such entries were picked first, then a sample of the others. The call rests on the fitted dose curve; in most records, active means well fitted cell-killing curve with a large enough effect; inconclusive means small, poorly fitted or top-dose-only effect; inactive means no such curve, though single readings can be large or run the other way. Potencies beside an inconclusive call are fits to weak or partial responses and may not hold up.

experiment: qHTS Screen for Compounds that Selectively Target Cancer Cells with p53 Mutations: Cytotoxicity of p53ts Cells at the Permissive Temperature; conditions: H1299-p53A138V at 32C, ATP luminescence viability, 24 h; activity change, negative = cytotoxicity: at 46.1 µM (top of the series); further: nearly all actives have a fitted effect of over 55% in size;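 on activity change, negative = cytotoxicity: 0% = DMSO and -100% = full killing by reference compound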
Summary of the method: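 Viability by ATPlite luminescence after 24 h compound treatment (up to 46 uM) at the permissive 32C. Cells are H1299 carrying p53 A138V. Scale runs from DMSO basal to 100 uM tamoxifen as full kill; AC50 from Hill fits.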
Potency means the concentration at half of the fitted maximal effect; tags describe the fitted curve by direction and shape.

Compound	Potency	activity change, negative = cytotoxicity
COCCNc1nc(-c2ccc(C(=O)N(C)C)cc2)nc2ccccc12	inconclusive: 10 µM [cytotoxic, partial curve]	–
Cc1cccn2cc(-c3ccc(F)cc3)nc12	inconclusive: 10 µM [cytotoxic, partial curve]	–
O=C(NC1CCCCCC1)c1ccc(N2CCCC2=O)cc1	inconclusive: 12.6 µM [cytotoxic, partial curve]	–
O=C(CSc1n[nH]c(=O)n1C1CC1)Nc1cc(Cl)ccc1Oc1ccccc1	inconclusive: 31.6 µM [cytotoxic, single point]	–
CCOC(=O)c1c(C)n(-c2ccccc2)c2ccc(OC(=O)c3ccccc3)cc12	–	inactive: 9.77%
CCOC(=O)c1sc(NC(=O)c2ccc(C)o2)nc1C	active: 7.94 µM	–
O=C(CN(Cc1ccccc1)C1=NCCS1)c1ccccc1	inconclusive: 0.0141 µM [cytotoxic, full curve, poor fit]	–
Cc1cc(C)c(/C=C2/C(=O)Nc3ccccc32)[nH]1	–	inactive: 19.7%
N/C(Cc1ccc(Cl)cc1Cl)=N\OC(=O)Cc1ccccc1	inconclusive: 0.0178 µM [cytotoxic, full curve, poor fit]	–
CCOC(=O)Cn1c(=O)oc2cc(S(=O)(=O)Nc3cc(OC)cc(OC)c3)ccc21	inconclusive: 17.8 µM [cytotoxic, single point]	–
CCOc1ccc(C(=O)Nc2c(C(N)=O)oc3ccccc23)cc1	inconclusive: 8.91 µM [cytotoxic, partial curve, poor fit]	–
CCCn1c(C)cc(C(=O)COC(=O)c2ccc(Cl)c(S(=O)(=O)N3CCCC3)c2)c1C	inconclusive: 12.6 µM [cytotoxic, partial curve]	–
CS(=O)(=O)c1nc(-c2ccco2)cc(C(F)(F)F)n1	inconclusive: 31.6 µM [cytotoxic, single point]	–
Cc1ccc(-c2cc(C(=O)NCC3CCCO3)no2)cc1 (centres undefined)	inconclusive: 12.6 µM [cytotoxic, partial curve]	–
COc1ccccc1CNc1nc(-c2ccco2)nn1C(=O)c1ccccc1[N+](=O)[O-]	inconclusive: 35.5 µM [cytotoxic, single point]	–
COc1ccc(-c2cc(C(F)(F)F)nc(S(=O)(=O)CCCC(=O)Nc3ccccc3C(F)(F)F)n2)cc1OC	inconclusive: 31.6 µM [cytotoxic, single point]	–
Cc1nn(-c2nc3ccccc3[nH]2)c(N)c1-c1ccccc1	inconclusive: 20 µM [cytotoxic, single point]	–
CCCn1cc(S(=O)(=O)c2cccc(Cl)c2)c(=O)c2cc(F)c(N3CCN(CC)CC3)cc21	–	inactive: -6.59%
CCOC(=O)c1cnc(-n2nc(C)cc2C)nc1NCCc1ccccc1	inconclusive: 31.6 µM [cytotoxic, single point]	–
Cc1ccc2nc(N3CCN(C(=O)C4COc5ccccc5O4)CC3)sc2c1 (centres undefined)	inconclusive: 17.8 µM [cytotoxic, partial curve, poor fit]	–
Cc1ccc(-c2nc(-c3ccccn3)no2)cc1Cl	active: 2 µM	–
O=C(Nc1ccc2c(c1)nc1n2CCOC1)c1ccccc1	active: 12.6 µM	–

Compound	Potency	activity change, negative = cytotoxicity
CCCn1nnc(NC(=O)c2sc3ccccc3c2Cl)n1	inconclusive: 12.6 µM [cytotoxic, partial curve]	–
N#CC(C(=O)Nc1ccc(Cl)cc1)=C1Nc2ccccc2N1	inconclusive: 20 µM [cytotoxic, partial curve]	–
COC(=O)c1ccc(CSc2nc3c(cnn3-c3ccccc3)c(=O)[nH]2)o1	inconclusive: 31.6 µM [cytotoxic, single point]	–
O=C(Nc1ccc(NC(=O)c2ccco2)nc1)c1cccnc1	active: 10 µM	–
CCOC(=O)c1sc(Nc2nc3c(OC)cccc3s2)cc1C	inconclusive: 35.5 µM [cytotoxic, single point]	–
COc1cccc(-c2cc(C(=O)N/N=C/c3ccccc3O)[nH]n2)c1	inconclusive: 12.6 µM [cytotoxic, partial curve]	–
COc1ccc(-c2cc(C(F)(F)F)nc(S(=O)(=O)CCC(=O)N3CCOCC3)n2)cc1	active: 5.01 µM	–
CCc1ccc2oc(-c3cc(N)ccc3Cl)nc2c1	inconclusive: 12.6 µM [cytotoxic, partial curve]	–
N#C/C(=C\c1ccc(O)c(O)c1)C(=O)Nc1ccccc1	inconclusive: 12.6 µM [cytotoxic, partial curve]	–
O=[N+]([O-])c1cccc(/C=N\N2CCN(c3ccc(Cl)cc3)CC2)c1	inconclusive: 0.0045 µM [cytotoxic, full curve, poor fit]	–
CCc1ccc(NC(=O)N(Cc2c[nH]c3ccccc23)C2CCCCCC2)cc1	–	inactive: -16.8%
C/C(=N\NC(=O)c1ccncc1)c1ccc2ccccc2c1O	inconclusive: 5.01 µM [cytotoxic, single point]	–
Cc1ccc(-c2cc(-c3ccccc3C)[nH]n2)c(O)c1	inconclusive: 25.1 µM [cytotoxic, single point]	–
COc1ccc(NC(C)=O)cc1NC(=O)CSc1nnc(-c2ccccc2)n1N	–	inactive: 8.54%
CCc1nc2ccccc2n2c(-c3ccccc3)c3c(=O)n(C)c(=O)n(C)c3c12	–	inactive: 10.2%
CCCCCCCCCCCCCCCC(=O)O[C@H](CC(=O)O)C[N+](C)(C)C	active: 12.6 µM	–
COc1ccc(-c2ccc(SCC(=O)Nc3cc(C)on3)nn2)cc1OC	inconclusive: 12.6 µM [cytotoxic, partial curve]	–
COc1cccc(Nc2ncc3nc(-c4cccs4)c(=O)n(Cc4cccs4)c3n2)c1	–	inactive: -16.7%
COc1ccc(Nc2nc(S(=O)(=O)c3ccc(C)cc3)c(Cl)s2)cc1	inconclusive: 35.5 µM [cytotoxic, single point]	–
CCOC(=O)NC(Nc1nc2ccccc2s1)(C(=O)OCC)C(F)(F)F (centres undefined)	–	inactive: 1.98%
CCCCCCCCCCCCCCCC(=O)NC[C@@H](COP(=O)([O-])OCC[N+](C)(C)C)OCC	inconclusive: 31.6 µM [cytotoxic, single point]	–
CO[C@H]1COC(=O)C/C=C\[C@H](C)[C@H](OC)COC(=O)[C@@H](C)COC(=O)C/C=C\[C@@H]1C	–	inactive: 2.6% [at 9.22 µM] and inactive: 2.9% [at 9.22 µM]
